In patent publication US10941114B2, “Small molecule lipid II inhibitors” (University Of Maryland, Baltimore, priority 2015, dated 2021):
Structures can show the parent of a compound that is named as a salt.

System: Enterococcus faecalis EF1509
Experiment: Murine model of sepsis
Details: ampicillin 300 mg/kg IP; for bacterial counts in spleen: after 24 hours, 6jc48-1 100 mg/kg IP
Method: General methods for the murine model of sepsis were as follows. […] Infected animals subsequently were treated by intravenous injection 30 minutes, 120 minutes and 300 minutes post-infection with 5 mg/kg of the compound in 100 μL of one of (1) Tris-buffered saline solution, 50% PEG400, 10% DMSO (v/v), (2) linezolid (50 mg/kg, sterile Tris-buffered saline solution, 50% PEG400, 10% DMSO (v/v) as a positive control) or (3) vehicle (Tris-buffered saline solution, 50% PEG400, 10% DMSO (v/v) as a negative control). […] Mice were anesthetized by intraperitoneal injection of ketamine (80-100 mg/kg) and xylazine (10-15 mg/kg). Blood samples were collected by retro-orbital puncture using lithium-heparin polystyrene tubes to prevent coagulation. Spleens were harvested aseptically, weighed and homogenized in 500 μL sterile saline solution using an IKA™ basic disperser (IKA™, Wilmington N.C.). Whole blood samples and spleen homogenates were serially diluted and plated onto lysogeny broth (LB) agar plates. Bacterial counts were determined following a 24-hour incubation at 37° C. and expressed as CFU per milliliter for blood and CFU per gram for spleen.
A specific test was performed as follows. Based on the data obtained in the pharmacokinetic analysis, mice (n=5) were inoculated peritoneally with E. faecalis EF1509 and treated after 30 minutes and three times every 90 minutes following with compound at 5 mg/kg intravenously. Animals were monitored for survival. Blood and spleen samples were collected and tested for bacteria.
In a separate test, mice (n=5) were inoculated intraperitoneally with E. faecalis EF1509 (approximately 5×10^8 CFU/animal) and treated after 30 minutes with compound 6jc48-1 (100 mg/kg IP), ampicillin (300 mg/kg IP) or a vehicle control. Animals were monitored for survival. After 24 hours, spleen samples were collected and analyzed for the presence of bacteria. Bacterial counts were determined by plating serial dilutions on BHI agar plates and compared to control treatments as measures of efficacy. […]

CN(C)c1ccc(/C=C/c2cc(-c3ccc(Br)cc3)cc(-c3ccc(Br)cc3)[o+]2)cc1 [Compound 6jc48-1, (E)-2,4-bis(4-bromophenyl)-6-(4-(dimethylamino)styryl)pyrylium boron tetrafluoride salt]
bacterial counts in spleen: significant bacterial clearance

CC1(C)S[C@@H]2[C@H](NC(=O)[C@H](N)c3ccccc3)C(=O)N2[C@H]1C(=O)O [ampicillin, reference compound]
animals surviving for the duration of the experiment (E. faecalis EF1509 approx. 5×10^8 CFU/animal IP, treated after 30 minutes: 6jc48-1 100 mg/kg IP, n=5): all animals | bacterial counts in spleen: significant bacterial clearance
